This is an account of results in the supplement of paper PMC10369915.

Some of the results follow. No stated cut-off is given here; in the data, active = 3.2 or more and inactive = the rest. The signal is at background level for most entries.
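Further: displayed peptides selected on beads carrying the immobilized SH2 domain, with library peptides lacking any tyrosine serving as negative controls.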

The target of the first experiment is SHP2 C-SH2 domain E139D. Put plainly: enrichment score (SH2-bound / input frequency) (ratio); bacterial display of known human phosphotyrosine sites (pTyr-Var adds point mutants) read by sequencing; higher = stronger binding; tyrosines were phosphorylated by kinases first. Particulars: peptide library: pTyr-Var.
Consider QRPYVYYYSYL [PTEN_Y176_R173P], for which the enrichment score is inactive: 1.35.

On to TEDPEYDVQSK [PTCHD3_Y335], for which the enrichment score is inactive: 0.384.

Regarding KKGMIYGGGGG [PSME1_Y249_T244K], the enrichment score was inactive: 0.725.

On to QRPFVYFFSFL [PTEN_Y176_R173P_YF], for which the enrichment score was inactive: 2.17.

On to CPEARYNRSPI [PTAR1_Y42], for which the enrichment score was inactive: 0.742.

As to SKNSKYNAGST [PSEN1_Y315_E318G], the enrichment score was inactive: 0.401.

As for SENFTYIWWLN [PSG4_Y271_K267E_YF], the enrichment score is inactive: 0.425.

In the case of PRQRRYVYYYS [PTEN_Y174_S170R], the enrichment score is inactive: 0.244.

Take EFITRYIASLK [PSMA7_Y110_YF]: the enrichment score was inactive: 1.71.

Regarding SRNSKYNAEST [PSEN1_Y315_K311R], the enrichment score is inactive: 0.535.

For FEKNVYVDKNL [PTCHD3_Y688], the enrichment score was inactive: 0.895.

Take CEDGNYSPEIS [PTDSS1_Y424_T423N]: the enrichment score was inactive: 0.435.

On to PSQRRYVFFFS [PTEN_Y174_YF], for which the enrichment score was inactive: 1.02.

As to FETNVYVDKNL [PTCHD3_Y688_K685T], the enrichment score was inactive: 1.03.

Turning to VMVCAYLLHRG [PTEN_Y138_I135V], the enrichment score is inactive: 1.46.

Regarding PSQRCYVYYYS [PTEN_Y174_R173C], the enrichment score is inactive: 0.703.

As to SKNYTYIWWLN [PSG4_Y271], the enrichment score is inactive: 0.883.

For the molecule EALDFYGELRT [PTEN_Y155_V158L], the enrichment score was inactive: 0.757.

For EALDFYGEVKT [PTEN_Y155_R159K], the enrichment score is inactive: 0.912.

The target in the next experiment is SHP2 C-SH2 domain wild-type. The description is as above. Particulars: peptide library: pTyr-Var.
With QRPYVYYYSYL [PTEN_Y176_R173P], the enrichment score was inactive: 1.47.

Turning to TEDPEYDVQSK [PTCHD3_Y335], the enrichment score was inactive: 0.523.

KKGMIYGGGGG [PSME1_Y249_T244K]: the enrichment score was inactive: 0.715.

Turning to QRPFVYFFSFL [PTEN_Y176_R173P_YF], the enrichment score is inactive: 2.52.

With CPEARYNRSPI [PTAR1_Y42], the enrichment score is inactive: 0.804.

As for SKNSKYNAGST [PSEN1_Y315_E318G], the enrichment score was inactive: 0.293.

As for SENFTYIWWLN [PSG4_Y271_K267E_YF], the enrichment score was inactive: 0.625.

For PRQRRYVYYYS [PTEN_Y174_S170R], the enrichment score was inactive: 0.37.

With EFITRYIASLK [PSMA7_Y110_YF], the enrichment score is inactive: 1.72.

On to SRNSKYNAEST [PSEN1_Y315_K311R], for which the enrichment score is inactive: 0.451.

For FEKNVYVDKNL [PTCHD3_Y688], the enrichment score is inactive: 0.507.

Regarding CEDGNYSPEIS [PTDSS1_Y424_T423N], the enrichment score is inactive: 0.34.

For PSQRRYVFFFS [PTEN_Y174_YF], the enrichment score was inactive: 1.01.

FETNVYVDKNL [PTCHD3_Y688_K685T]: the enrichment score is inactive: 1.01.

Consider VMVCAYLLHRG [PTEN_Y138_I135V], for which the enrichment score is inactive: 1.61.

For the molecule PSQRCYVYYYS [PTEN_Y174_R173C], the enrichment score is inactive: 0.941.

SKNYTYIWWLN [PSG4_Y271]: the enrichment score was inactive: 0.858.

In the case of EALDFYGELRT [PTEN_Y155_V158L], the enrichment score is inactive: 0.886.

For EALDFYGEVKT [PTEN_Y155_R159K], the enrichment score was inactive: 0.742.

A further experiment deals with SHP2 N-SH2 domain L43F. Described as above. To be noted: peptide library: pTyr-Var.
As for QRPYVYYYSYL [PTEN_Y176_R173P], the enrichment score is inactive: 0.906.

For the molecule TEDPEYDVQSK [PTCHD3_Y335], the enrichment score was inactive: 0.228.

Regarding KKGMIYGGGGG [PSME1_Y249_T244K], the enrichment score is inactive: 0.621.

Take QRPFVYFFSFL [PTEN_Y176_R173P_YF]: the enrichment score was inactive: 1.95.

For CPEARYNRSPI [PTAR1_Y42], the enrichment score is inactive: 0.82.

Consider SKNSKYNAGST [PSEN1_Y315_E318G], for which the enrichment score was inactive: 0.638.

Take SENFTYIWWLN [PSG4_Y271_K267E_YF]: the enrichment score was inactive: 0.55.

For PRQRRYVYYYS [PTEN_Y174_S170R], the enrichment score is inactive: 0.243.

As to EFITRYIASLK [PSMA7_Y110_YF], the enrichment score is inactive: 1.67.

Regarding SRNSKYNAEST [PSEN1_Y315_K311R], the enrichment score was inactive: 0.469.

Turning to FEKNVYVDKNL [PTCHD3_Y688], the enrichment score was inactive: 0.654.

Turning to CEDGNYSPEIS [PTDSS1_Y424_T423N], the enrichment score was inactive: 0.396.

For PSQRRYVFFFS [PTEN_Y174_YF], the enrichment score is inactive: 1.4.

On to FETNVYVDKNL [PTCHD3_Y688_K685T], for which the enrichment score is inactive: 0.916.

For the molecule VMVCAYLLHRG [PTEN_Y138_I135V], the enrichment score is inactive: 1.52.

Consider PSQRCYVYYYS [PTEN_Y174_R173C], for which the enrichment score is inactive: 0.717.

On to SKNYTYIWWLN [PSG4_Y271], for which the enrichment score was inactive: 1.04.

In the case of EALDFYGELRT [PTEN_Y155_V158L], the enrichment score is inactive: 0.786.

As for EALDFYGEVKT [PTEN_Y155_R159K], the enrichment score is inactive: 0.787.

The next experiment has as its target SHP2 N-SH2 domain T42A. The description is as above. Particulars: peptide library: pTyr-Var.
For QRPYVYYYSYL [PTEN_Y176_R173P], the enrichment score is inactive: 0.983.

As to TEDPEYDVQSK [PTCHD3_Y335], the enrichment score was inactive: 0.337.

On to KKGMIYGGGGG [PSME1_Y249_T244K], for which the enrichment score was inactive: 0.545.

Regarding QRPFVYFFSFL [PTEN_Y176_R173P_YF], the enrichment score was inactive: 2.41.

Consider CPEARYNRSPI [PTAR1_Y42], for which the enrichment score was inactive: 0.616.

As for SKNSKYNAGST [PSEN1_Y315_E318G], the enrichment score is inactive: 0.51.

With SENFTYIWWLN [PSG4_Y271_K267E_YF], the enrichment score was inactive: 0.483.

For PRQRRYVYYYS [PTEN_Y174_S170R], the enrichment score is inactive: 0.279.

As for EFITRYIASLK [PSMA7_Y110_YF], the enrichment score was inactive: 1.77.

Turning to SRNSKYNAEST [PSEN1_Y315_K311R], the enrichment score was inactive: 0.557.

For the molecule FEKNVYVDKNL [PTCHD3_Y688], the enrichment score is inactive: 0.554.

Regarding CEDGNYSPEIS [PTDSS1_Y424_T423N], the enrichment score is inactive: 0.485.

Consider PSQRRYVFFFS [PTEN_Y174_YF], for which the enrichment score was inactive: 1.13.

As for FETNVYVDKNL [PTCHD3_Y688_K685T], the enrichment score is inactive: 0.641.

As for VMVCAYLLHRG [PTEN_Y138_I135V], the enrichment score was inactive: 1.45.

On to PSQRCYVYYYS [PTEN_Y174_R173C], for which the enrichment score is inactive: 0.611.

For SKNYTYIWWLN [PSG4_Y271], the enrichment score is inactive: 0.786.

As to EALDFYGELRT [PTEN_Y155_V158L], the enrichment score was inactive: 0.725.

As for EALDFYGEVKT [PTEN_Y155_R159K], the enrichment score is inactive: 0.631.

The target of the next experiment is SHP2 N-SH2 domain T52S. The description is as above. To be noted: peptide library: pTyr-Var.
Turning to QRPYVYYYSYL [PTEN_Y176_R173P], the enrichment score was inactive: 0.78.

With TEDPEYDVQSK [PTCHD3_Y335], the enrichment score was inactive: 0.318.

With KKGMIYGGGGG [PSME1_Y249_T244K], the enrichment score is inactive: 0.705.

Consider QRPFVYFFSFL [PTEN_Y176_R173P_YF], for which the enrichment score is inactive: 2.89.

Consider CPEARYNRSPI [PTAR1_Y42], for which the enrichment score was inactive: 0.605.

Take SKNSKYNAGST [PSEN1_Y315_E318G]: the enrichment score is inactive: 0.545.

Take SENFTYIWWLN [PSG4_Y271_K267E_YF]: the enrichment score was inactive: 0.496.

Take PRQRRYVYYYS [PTEN_Y174_S170R]: the enrichment score was inactive: 0.233.

In the case of EFITRYIASLK [PSMA7_Y110_YF], the enrichment score is inactive: 1.92.

SRNSKYNAEST [PSEN1_Y315_K311R]: the enrichment score is inactive: 0.397.

FEKNVYVDKNL [PTCHD3_Y688]: the enrichment score is inactive: 0.807.

CEDGNYSPEIS [PTDSS1_Y424_T423N]: the enrichment score is inactive: 0.491.

For the molecule PSQRRYVFFFS [PTEN_Y174_YF], the enrichment score is inactive: 1.47.

For the molecule FETNVYVDKNL [PTCHD3_Y688_K685T], the enrichment score is inactive: 0.743.

For the molecule VMVCAYLLHRG [PTEN_Y138_I135V], the enrichment score was inactive: 1.37.

As to PSQRCYVYYYS [PTEN_Y174_R173C], the enrichment score was inactive: 0.785.

For SKNYTYIWWLN [PSG4_Y271], the enrichment score is inactive: 1.16.

For EALDFYGELRT [PTEN_Y155_V158L], the enrichment score was inactive: 0.672.

With EALDFYGEVKT [PTEN_Y155_R159K], the enrichment score was inactive: 0.993.

A further experiment addresses SHP2 N-SH2 domain wild-type. Described as above. Particulars: peptide library: pTyr-Var.
With QRPYVYYYSYL [PTEN_Y176_R173P], the enrichment score was inactive: 1.87.

On to TEDPEYDVQSK [PTCHD3_Y335], for which the enrichment score is inactive: 0.311.

Consider KKGMIYGGGGG [PSME1_Y249_T244K], for which the enrichment score is inactive: 0.689.

As to QRPFVYFFSFL [PTEN_Y176_R173P_YF], the enrichment score is inactive: 2.3.

Take CPEARYNRSPI [PTAR1_Y42]: the enrichment score is inactive: 1.01.

Consider SKNSKYNAGST [PSEN1_Y315_E318G], for which the enrichment score was inactive: 0.541.

With SENFTYIWWLN [PSG4_Y271_K267E_YF], the enrichment score was inactive: 0.622.

Take PRQRRYVYYYS [PTEN_Y174_S170R]: the enrichment score is inactive: 0.342.

With EFITRYIASLK [PSMA7_Y110_YF], the enrichment score was inactive: 1.73.

In the case of SRNSKYNAEST [PSEN1_Y315_K311R], the enrichment score is inactive: 0.579.

For the molecule FEKNVYVDKNL [PTCHD3_Y688], the enrichment score is inactive: 0.979.

For the molecule CEDGNYSPEIS [PTDSS1_Y424_T423N], the enrichment score was inactive: 0.64.

With PSQRRYVFFFS [PTEN_Y174_YF], the enrichment score is inactive: 0.723.

In the case of FETNVYVDKNL [PTCHD3_Y688_K685T], the enrichment score is inactive: 0.868.

In the case of VMVCAYLLHRG [PTEN_Y138_I135V], the enrichment score was inactive: 1.91.

Regarding PSQRCYVYYYS [PTEN_Y174_R173C], the enrichment score was inactive: 0.9.

For the molecule SKNYTYIWWLN [PSG4_Y271], the enrichment score was inactive: 0.96.

Regarding EALDFYGELRT [PTEN_Y155_V158L], the enrichment score was inactive: 0.99.

Take EALDFYGEVKT [PTEN_Y155_R159K]: the enrichment score was inactive: 0.999.
